Source: the supplement of paper PMC11417369
This is one part of the list.

The sequences below were run on PfSIP2 AP2 domain 1 (GST-tagged) (assay: gcPBM binding intensity (ln(normalized median fluorescence intensity)); higher = stronger DNA binding).
Method in brief: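 Using an Agilent 4 × 180k array, primer-extended double-stranded 36-bp intergenic genomic probes and negative controls were exposed for 1 h to GST-fused P. falciparum DNA-binding domains expressed in E. coli. Binding was carried out in 1× PBS with 1% milk, 0.2 mg/ml BSA, 0.5% salmon testes DNA and 0.03% Triton X-100, and protein was detected with Alexa488 anti-GST antibody and a 488 nm scan. Binding intensity is the highest Masliner-normalised natural-log median intensity across replicate spots of either probe orientation.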

Sequence | gcPBM binding intensity (ln)
TATCATAAAATATGTAGTACGTATATATATAAAAAT [XGTACX_site5455] | 7.37
TAAACAGACATACATACACACATACATACAGACATA [CACACA_site6997] | 7.13
AAAAAAAAAGTATATATATATTTAAGGAATTCTCTC [GTGCAC_negctrl_site454] | 6.77
ATATATATATATTGCACACATATAAATATATATATT [CACACA_site807] | 9.22
AATATATAGCTAAAAACACACAAATATATACTCATA [CACACA_site5904] | 6.87
ATACATTTTTTTTTCACACATATATATATATTTAAT [CACACA_site5995] | 7.43
CTCACGTAGCTTGATGCATGCAAACTTGAGTAAAAG [TGCATGCA_site409] | 7.04
TTTATAAAATTTATTGCACACAATTATTTTATAATT [CACACA_site2489] | 6.93
CATTTTTAAAAAAATTGTACAAAACATATATGTGTA [XGTACX_site3396] | 6.94
TATTAAAAGTAAAAAACACACATGGATATATACATA [CACACA_site3959] | 6.84
TTCCTTTTGAACTCTCGTACGCGTAGGTGTTATTAT [XGTACX_site6264] | 7.02
GTTGTGTAATTCGTAACACACATAAAATATAAATAA [CACACA_site7799] | 7.01
AAAAAAAAAAAAAAAAAAAAAAAAATATATATATAT [CACACA_negctrl_site436] | 8.86
TTACTATATAATATGTGTACACAACATATAATATAT [XGTACX_site1383] | 7.17
TTTTTTTTTTGATGTTGTACTTATATACTATATAAT [XGTACX_site2778] | 7.02
TAAATAAATAAAAAAACACACATATAAATATAAATA [CACACA_site7815] | 6.86
TGTTTCCTATTTTGTATGCACTTTTTGTCATAATTA [GTGCAC_site9921] | 8.28
TATGTGTGACAAAATTGTACGGTCTCTTTATTTTGT [XGTACX_site2679] | 6.95
TATACGGACTCTAAGTGTACTTAAAATAATTCAAAC [XGTACX_site3606] | 7.51
ATTTTTATACCTAAGTGTACATGATGTTTTCTTTTT [XGTACX_site973] | 6.97
TATATTGCCCTTCACACACACACATATATATATATA [CACACA_site2492] | 9.62
TAAAAATGTTGACACACACACATAAATATATTTTAT [CACACA_site7227] | 6.98

Sequence | gcPBM binding intensity (ln)
TATTATATAATAAAAATTATTATTATTTGTATAAAT [CACACA_negctrl_site195] | 6.73
TATATATATATATATATACACACGTATATATATACA [CACACA_site4155] | 9.4
ATATCTTTGCAAAGATGTACTTGTAAAAATATATGA [XGTACX_site768] | 7.11
TAATATCAATATAAAGTACACACTATAGTATGTATT [CACACA_site2280] | 6.99
TAAAAGTAAAGACATGCATGCATTGGTATCTTTTAC [TGCATGCA_site665] | 6.52
TATAATAAAACTTTTACACACTTTAAAAAAAAAAAA [CACACA_site6392] | 6.89
GACCCACTTTTCTGCACACATAAAAAATATATAAAT [CACACA_site4483] | 8.57
TTTATATTTAAATATATATGAGAAAACACAAAATAT [TGCATGCA_negctrl_site211] | 7.34
GCTTCATTTTAAACTTGTACTTATTTTTTGGTAAAT [XGTACX_site8879] | 7.6
TAGTTACTTCTTATATAAAATATGTATATAAAAATA [GTGCAC_negctrl_site190] | 6.95
TTGTTTGTTGTAACGTGTACAGATAAAAATAAAGGG [XGTACX_site375] | 7.73
TTCATATTATAGTGCACACAAAAATATATATATGGT [CACACA_site2855] | 10.7
TCTCTCATTTATTTTTGTACTTAATCCAGCACGTTT [XGTACX_site1369] | 7.08
ACATATTAATTATAAAGTACATATATATATATATAT [XGTACX_site4540] | 9.76
AAATTATCTTAATAGGATGTTCAAGGAGAAAGATGA [CACACA_negctrl_site1032] | 7.14
TTTATTATAATATGTTGTACAAGACGTTTCAGTATA [XGTACX_site4486] | 7.15
TAAATTAATACCTATGCACACATTTTTTTTTTTAAA [CACACA_site1238] | 7.49
CTTAAATTTTTAAATACACACATACACCCATACACA [CACACA_site4461] | 7.54
AAACCCTATTCAATGCAATAATTTTATAATTTTTTT [TGCATGCA_negctrl_site434] | 6.91
TTTTTTTTAAATATCACACACATATAATATATTCTA [CACACA_site3668] | 6.88
TAGCGGCGGTATCATGCACACGTATATATTGTAACA [CACACA_site8453] | 7.08
ATAGTTTTATATAAATGTACAAATGATTTCAAATAG [XGTACX_site8236] | 7.08

Sequence | gcPBM binding intensity (ln)
AACATGTATATATTATGTACATATGTTAAAATGATA [XGTACX_site6217] | 7.24
TTTTCTTACACGAATTTTAAATTCAATATTAAACAT [CACACA_negctrl_site286] | 7.1
TTACCTTTTTCTAATGGTACACATAAAATATCATTT [XGTACX_site6825] | 6.95
GAGTTAATTTTTTCGTGTACTTGAAAATATTTTTTT [XGTACX_site6392] | 7.21
TTAGCAACTATTACTACACACATTTGTATATAACTT [CACACA_site6850] | 7
GTGGAAATATAACACATTTTTTTTAATAATTATATT [TGCATGCA_negctrl_site522] | 6.77
TATTTTATGTAAATTGGTACACATATGTCAGTAAAA [XGTACX_site7111] | 7.28
GATGCTAAAATTTATACACACAAAAAAAAAAAATTC [CACACA_site3284] | 7
AAAAAAAAAAAATATACACACACACCGACACATAAA [CACACA_site9270] | 7.13
TTTTGAATATTTGGTCGTACGTAAAAATAGATAATT [XGTACX_site5755] | 7.31
TTTCATATTTTGTCCTGTTTTTTTTTTTTTTTTCTT [CACACA_negctrl_site993] | 6.74
AAAATATAAAAAGTCACACATATATATATTTATTTA [CACACA_site4872] | 6.78
TTGAATGAAAAAATTTGTACTCATATAAATAATTTA [XGTACX_site4628] | 6.85
CAATAATTTTTTGTGGGTACAAATAATTTTTTAAAT [XGTACX_site2407] | 7.04
AGGAGAAAAGATAAAGACTTCAAGAAAAAAAAATAA [TGCATGCA_negctrl_site258] | 6.49
TAACAAAACCTTATATGTACACACATATACATCACA [XGTACX_site6772] | 7.16
TTAAAAATGAACATATGTACATATATATATATATAT [XGTACX_site7923] | 9.39
TTATCATTTTAAATCACACACATATATATATATATA [CACACA_site2849] | 9.35
ACTACAAGGCAATACAGTACATATAAATGTCATAAT [XGTACX_site8468] | 6.92
TACCTTTTATTAATGTGTACCTAAAATATAATACTT [XGTACX_site192] | 7.23
AAAAAGGTTATTGGTACACACATATGTATTTATATA [CACACA_site4464] | 6.99
AAAAGAATTACTTTCACACATATATATCTGTAAATA [CACACA_site5798] | 7.01

Sequence | gcPBM binding intensity (ln)
TACATATTTATATACACACACACCCTAAAAATATAT [CACACA_site6861] | 7.11
AATAATGAAGCTTATGCACACGTTCATTATTTATAT [CACACA_site5736] | 9.71
ATAATTTTTTTTTTTTTTTTTTGAAAGTAGCATATG [CACACA_negctrl_site732] | 6.77
AACTTGTGTGGATATTGTACTAACAATATGTATGAT [XGTACX_site6302] | 7.29
AATAGTGTATAAATTTGTACATATAATTAAAAGGAA [XGTACX_site1143] | 7.34
AATAACTTTTTGAGATGTACATTTTTAATTCGTAGA [XGTACX_site8455] | 6.95
ATTCATAAAAAGAGGTGTACATTAATATAATATATA [XGTACX_site8283] | 7.25
TTATTCGAACAAAGGAAAAAATATATTCAAAGGAAA [TGCATGCA_negctrl_site215] | 6.65
ACTTTAATAATTCACTTATTTTCTTATTATATTATT [CACACA_negctrl_site556] | 7.15
GGATTTATTTTATATACACACATACCTATATTTATA [CACACA_site7084] | 6.98
TTTTTAACTAACATATCAATTCCATACGTCGTCAAA [CACACA_negctrl_site560] | 6.75
TTTAAAAATTTGATCAAACACACGTTGCATAAATTA [CACACA_site3945] | 6.89
AGGATATGCAGACACACACACATATAGATTTATATA [CACACA_site7100] | 7.08
TCTATATAATACCAATGTACATAGTTTTAAGCATAA [XGTACX_site1889] | 6.93
AAAACAAAAATATAAACACACATACATTGGTTTTCT [CACACA_site5405] | 6.87
ATAAATTGTAAAATGTGTACGCAGATATTGCGTATT [XGTACX_site332] | 7.17
ATAATATAAACATACACACACACATATATATATATA [CACACA_site5591] | 9.27
TTTTGTCTTCAAATCAAATGTATATAAAAAAAATAC [CACACA_negctrl_site1717] | 7.14
AAAATTAAAATAGTAATACACACTTCATAGGAAATG [CACACA_site1762] | 6.6
CTTTAATATTTTATTTCACACACATAAATGCCCCAA [CACACA_site8569] | 7.43
AACAAGAAATAATCACGTACACATTATAATAACTAA [XGTACX_site8184] | 7.06
